Test results published in ChEMBL document CHEMBL4888484, “Replenishing the malaria drug discovery pipeline: Screening and hit evaluation of the MMV Hit Generation Library 1 (HGL1) against asexual blood stage Plasmodium falciparum ,using a nano luciferase reporter read-out” (2022).
Screen size: about 150,000 compounds; about 540 (0.36%) showed an effect of 50% or more. Some of the results follow.

What follows are compounds tested on Plasmodium falciparum (assay: Primary screen in NF54 nanoGlo assay, in single point, at 2uM, 72h; a lower Z score goes with more inhibition). Conditions: timepoint 72 hour.
Format: functional, Erythrocyte
With `CCN1CCCN(C(=O)c2cc(F)ccc2F)CC1=O` the “% Inhibition” value was -4% and the Z score was 0.8. In the case of `COc1ccc(NC(=O)COc2ccc3c(c2)OCCO3)cc1OC`, the “% Inhibition” value is reported as -26% and the Z score is reported as 3.11. `Cc1cc(CNC(=O)[C@@H]2CC[C@@H]2C(=O)O)ccc1-c1ccccc1` was tested, and the “% Inhibition” value was 1% and the Z score was -0.2. For `Cc1ccc(OCC(O)CN2CCN(CC(O)COc3ccc(C)cc3C)CC2)c(C)c1` (configuration not stated), the “% Inhibition” value was -14% and the Z score was 1.78. For `Cc1ccccc1-n1c(=O)c2sccc2n(CC(=O)N2CCCc3ccccc32)c1=O`, the “% Inhibition” value was -3% and the Z score was 0.42. `CC1CCCC(C)N1C(=O)c1cc(-c2cccs2)nc2ccccc12` (configuration not stated) was tested, and the “% Inhibition” value was 1% and the Z score was -0.1. For `CN(C)Cc1cc(-c2nc3ccccc3s2)ccc1OCC(=O)NCc1cccc(Cl)c1`, the “% Inhibition” value was -10% and the Z score was 1.16. With `O=C(NCCc1cnn(-c2ccccc2)c1)N1CC[C@H](N2CCOCC2)C1` the “% Inhibition” value was -16% and the Z score was 2.98. In the case of `Cc1c(-c2nn(-c3nc(C4CC4)cc(C(F)(F)F)n3)c(-c3cnn(C)c3C)c2Cl)cnn1C`, the “% Inhibition” value is reported as 76% and the Z score is reported as -8.32. `NC(=O)c1ccc(OCC2CCOCC2)nc1` was tested, and the “% Inhibition” value was -10% and the Z score was 1.98. For `CC(C)N(C)S(=O)(=O)NCc1csc(-c2ccn(C)n2)n1`, the “% Inhibition” value was -12% and the Z score was 1.37. In the case of `Cc1nc(-c2cc3ccccc3nc2N2CCN(C(=O)c3cccs3)CC2)no1`, the “% Inhibition” value is reported as -10% and the Z score is reported as 1.45. For `O=C(C[C@@H]1N=C(O)c2ccccc2NC1=O)Nc1n[nH]c(CCC2CCCC2)n1`, the “% Inhibition” value was -3% and the Z score was 0.33. `CS(=O)(=O)NC[C@H]1COCCN1C(=O)Nc1cc(F)cc(F)c1F` was tested, and the “% Inhibition” value was 5% and the Z score was -0.62. In the case of `Cc1c(CNCc2ccc(OC(C)C)cc2)c(C(=O)O)c(C)n1-c1ccc(Cl)cc1`, the “% Inhibition” value is reported as 4% and the Z score is reported as -0.58. In the case of `CC[C@@H]1Oc2ccc(NC(=O)Nc3cccc(Cl)c3)cc2CN(CCc2ccc(OC)c(OC)c2)C1=O`, the “% Inhibition” value is reported as 7% and the Z score is reported as -1.1. In the case of `CCN(CCC#N)C(=O)[C@@H](C)CCc1cccc(F)c1`, the “% Inhibition” value is reported as 0% and the Z score is reported as 0. In the case of `COc1ccc(C(=O)NC[C@@H](c2cccnc2)S(=O)(=O)c2ccc(Cl)cc2)cc1OC`, the “% Inhibition” value is reported as -4% and the Z score is reported as 0.61. For `O=C(CCn1cncn1)N1CCC[C@H](Cc2nc3ccccc3[nH]2)C1`, the “% Inhibition” value was 0% and the Z score was 0.04. In the case of `CC(C(=O)N1CCc2ccccc21)N1CCOC(CN(C)C)C1` (configuration not stated), the “% Inhibition” value is reported as -6% and the Z score is reported as 0.84. `CC(NC1CC(=O)N(CC(F)(F)F)C1)c1cnn(C(C)C)c1` (configuration not stated) was tested, and the “% Inhibition” value was 4% and the Z score was -0.72. `COc1ccc(NC(=O)C2CCN(c3cc(C)nc4c(-c5ccc(Cl)cc5)c(C)nn34)CC2)cc1` was tested, and the “% Inhibition” value was -7% and the Z score was 0.92. In the case of `COC(=O)CN1CCC(Nc2cc(C)cc3cccnc23)CC1`, the “% Inhibition” value is reported as -17% and the Z score is reported as 1.43. `Cc1noc(C)c1CN(C)C(=O)c1cnc2ccccn2c1=O` was tested, and the “% Inhibition” value was -7% and the Z score was 1.33. With `COc1cccc(CN2CCCN(c3ccc(NC(=O)c4cccs4)cc3)C2=O)c1` the “% Inhibition” value was -1% and the Z score was 0.19. In the case of `CC(C)(C)c1ccc(C(=O)N2CCCn3nnnc32)s1`, the “% Inhibition” value is reported as -11% and the Z score is reported as 1.27. With `Cc1cc(OCc2ccc(F)cc2)ccn1` the “% Inhibition” value was -11% and the Z score was 1.01. With `CCN(C(=O)COc1ccccc1Cl)[C@H](c1ccc(C)cc1)c1c[nH]c2ccccc12` the “% Inhibition” value was 8% and the Z score was -1.13. For `Cc1csc(NC(=O)C2CCN(CCNS(C)(=O)=O)CC2)n1`, the “% Inhibition” value was 5% and the Z score was -1.02. In the case of `COCc1noc([C@@H]2CN(Cc3ccccc3)CCO2)n1`, the “% Inhibition” value is reported as 5% and the Z score is reported as -0.72. In the case of `CCC(C)C(=O)NC(C#N)c1ccccc1C` (configuration not stated), the “% Inhibition” value is reported as -3% and the Z score is reported as 0.4. For `COc1cccc(NC(=O)N2CCO[C@@H](CN(CC(C)C)C(=O)c3cccc(OC)c3)C2)c1`, the “% Inhibition” value was -2% and the Z score was 0.24. `COc1cccc(S(=O)(=O)N2CCc3nnc([C@@H]4C[C@@H](O)CN4C)n3CC2)c1` was tested, and the “% Inhibition” value was -6% and the Z score was 0.79. With `CN1CCN(CC(=O)N2CC[C@@H]3OCc4cccc(c4)Oc4ccc(cc4)CCC(=O)N(CCCO)CC(=O)N[C@H]3C2)C1=O` the “% Inhibition” value was -7% and the Z score was 1.26. `CCCn1cnnc1CN(C)C(=O)c1ccc(-c2cc(N)nc(N)n2)cc1` was tested, and the “% Inhibition” value was -15% and the Z score was 1.95. With `Cc1ccsc1CN(Cc1ccc(F)cc1)C(=O)CN(C(C)C)S(=O)(=O)c1cccc2cccnc12` the “% Inhibition” value was 0% and the Z score was 0.06. In the case of `COc1cccc(C[C@@]2(C3CCN(Cc4cccc5nccnc45)CC3)NC(=O)N(C)C2=O)c1`, the “% Inhibition” value is reported as -8% and the Z score is reported as 1.01. In the case of `Cc1nc(CNC(=O)c2c[nH]c(=O)cn2)oc1-c1ccc(Cl)cc1`, the “% Inhibition” value is reported as -30% and the Z score is reported as 3.47. `COCCn1nc([C@H]2CCCN(C(=O)c3ccccc3F)C2)n(C2CC2)c1=O` was tested, and the “% Inhibition” value was -1% and the Z score was 0.06. `Cc1ccc(CNc2ccc3[nH]nc(C(N)=O)c3c2)cc1C` was tested, and the “% Inhibition” value was 25% and the Z score was -2.85. `CCCc1nc(C)c(CNC(=O)c2ccn(C(F)F)n2)s1` was tested, and the “% Inhibition” value was -12% and the Z score was 1.12. In the case of `Cc1cccnc1CN(C)Cc1c(CO)cnc(C)c1O`, the “% Inhibition” value is reported as -6% and the Z score is reported as 0.95. `Cc1nc(CN2CC[C@H](c3ccnc(-c4cccc5cccnc45)c3)C2)co1` was tested, and the “% Inhibition” value was 3% and the Z score was -0.45. `O=C(Nc1nc(C(=O)N2CCN(c3ncccn3)CC2)co1)c1ccsc1` was tested, and the “% Inhibition” value was -2% and the Z score was 0.31. For `Cn1ccnc1[C@H]1OCC[C@@H]1NC(=O)c1cnc2[nH]nnc2c1`, the “% Inhibition” value was 8% and the Z score was -0.96. For `Cc1cc(C)c(CNCC2CCC(C(N)=O)O2)c(C)c1` (configuration not stated), the “% Inhibition” value was -4% and the Z score was 0.35. With `Cc1nn(S(=O)(=O)c2ccc(F)cc2)c(C)c1S(=O)(=O)N1CCCCCC1` the “% Inhibition” value was -14% and the Z score was 1.28. With `CC(=O)NC(CC(=O)N1CCC[C@H]2C(=O)N(Cc3ccccc3)C(=O)[C@H]21)c1ccc(C)cc1` (some centres not stated) the “% Inhibition” value was -3% and the Z score was 0.53. `C[C@H]1Cc2cccc3c(O)c(C(=O)NCCCc4ccccc4)c(=O)n1c23` was tested, and the “% Inhibition” value was -2% and the Z score was 0.21. For `O=c1[nH]ccn2c(CCNc3nc(C4CCCCC4)ns3)nnc12`, the “% Inhibition” value was -6% and the Z score was 0.73. `Cc1ccn(CC(=O)N(Cc2ccccc2)C2CC2)c(=O)c1` was tested, and the “% Inhibition” value was -8% and the Z score was 0.69. `COCCn1cc(CNC[C@H]2CCCn3cc(C(C)(C)C)nc32)cn1` was tested, and the “% Inhibition” value was -8% and the Z score was 0.69. With `COc1cc(Cl)c(C)cc1NC(=O)c1ccccc1NC(=O)CN(C)Cc1ccco1` the “% Inhibition” value was -5% and the Z score was 0.77. `CC(C)c1cccc(S(=O)(=O)N2C[C@H]3OCCN(C)[C@H]3C2)c1` was tested, and the “% Inhibition” value was -2% and the Z score was 0.36. `O=C(Nc1nc(=S)ss1)c1ccc(Cl)cc1` was tested, and the “% Inhibition” value was -11% and the Z score was 1.88. With `COCc1nc(C(=O)OCC(=O)NCc2ccc3c(c2)OCO3)cs1` the “% Inhibition” value was -1% and the Z score was 0.08. With `Cc1noc(C)c1C[C@H](C)NS(=O)(=O)CC(C)(C)CC#N` the “% Inhibition” value was -1% and the Z score was 0.07. For `COc1ccc(CC(=O)Nc2ccc(-n3cnnn3)c(OC)c2)cc1OC`, the “% Inhibition” value was -5% and the Z score was 0.56. In the case of `CCc1nnc(CN(CC)Cc2cccnc2N)o1`, the “% Inhibition” value is reported as -6% and the Z score is reported as 1.02. In the case of `COc1ccc(CNCCc2ncccc2C)cc1OC[C@@H](O)CN1CCCCCCC1`, the “% Inhibition” value is reported as -11% and the Z score is reported as 1.36. In the case of `CCc1cccc(NC(=O)CN2CCCO[C@@H](C)C2)c1`, the “% Inhibition” value is reported as -1% and the Z score is reported as 0.23. For `NC(=O)c1cc(OC2CCN(Cc3ccc(-c4ccn[nH]4)o3)CC2)ccn1`, the “% Inhibition” value was -1% and the Z score was 0.06. In the case of `COc1ccc2nc(-c3nc(C)cs3)[nH]c(=O)c2c1`, the “% Inhibition” value is reported as -14% and the Z score is reported as 2.04. With `CCc1ocnc1C(=O)N1C[C@@H]2c3ccc(OC)cc3OC[C@]2(CO)C1` the “% Inhibition” value was -11% and the Z score was 1.44. `N#CCN(Cc1nnc(-c2ccc(Cl)cc2)o1)C1CCCC1` was tested, and the “% Inhibition” value was -12% and the Z score was 1.23. In the case of `O=C1CCc2cc(S(=O)(=O)N3CCCc4ccccc43)cc3c2N1CCC3`, the “% Inhibition” value is reported as -11% and the Z score is reported as 2.16. For `CCc1noc2nc(C)nc(N3CCC[C@H](C(=O)NCc4ccccc4C)C3)c12`, the “% Inhibition” value was 4% and the Z score was -0.55. In the case of `O=C(Nc1ccc2[nH]c(C3CC3)nc2c1)c1ccc(Br)o1`, the “% Inhibition” value is reported as -17% and the Z score is reported as 1.83. For `O=C(NCC1CCOCC1)Nc1ccncn1`, the “% Inhibition” value was -3% and the Z score was 0.26. With `CN(C)c1ccc(C2=Nc3cc(F)ccc3NC(c3ccc(C(C)(C)C)cc3)=N2)cc1` the “% Inhibition” value was -4% and the Z score was 0.51. For `O=C(Cn1ccc2ccccc21)N1CC(c2nc(-c3ccco3)no2)C1`, the “% Inhibition” value was 4% and the Z score was -0.5. `CC(C)c1ccc2c(c1)[C@@H](NC(=O)NCc1cccnc1)CC2` was tested, and the “% Inhibition” value was -10% and the Z score was 1.28. For `O=C(Nc1ccc2c(c1)OCO2)C1CCN(c2ccc(-c3cccs3)nn2)CC1`, the “% Inhibition” value was 2% and the Z score was -0.33. `COCC(=O)Nc1cc(C(=O)N[C@H]2CCOC2)c2c(c1)nc(C1CCC1)n2C` was tested, and the “% Inhibition” value was -8% and the Z score was 1.47. In the case of `Cc1ccc2cc1Oc1cccc(c1)CO[C@H]1CCN(C(=O)CCn3cnnn3)C[C@H]1NC(=O)CN(C)C2=O`, the “% Inhibition” value is reported as -3% and the Z score is reported as 0.58. In the case of `CCc1ncnc(N2CC(N(C)OC)C2)c1F`, the “% Inhibition” value is reported as -8% and the Z score is reported as 1.05. With `Cc1noc(C)c1CCC(=O)NC(c1ccccn1)[C@H]1C[C@H](O)C1` (some centres not stated) the “% Inhibition” value was -6% and the Z score was 0.98. `CC(C)c1ccc(NC(=O)C[C@@H]2N=C(NC(=N)Nc3ccccc3)NC2=O)cc1` was tested, and the “% Inhibition” value was 5% and the Z score was -0.65. With `CC(C)(C)c1cccc(OCCNC(=O)N2C3CCC2CC(O)C3)c1` (configuration not stated) the “% Inhibition” value was 5% and the Z score was -0.96. For `CC1OC(=O)NC1c1nc(-c2ccc(Br)cc2)no1` (configuration not stated), the “% Inhibition” value was -3% and the Z score was 0.44. With `c1csc(CN2CCCc3ccccc32)c1` the “% Inhibition” value was -1% and the Z score was 0.16.
